The whole screen tested about 46,000 compounds, of which about 60 (0.1%) were called active. About 3% were inconclusive and are not listed. Calls come from the whole dose curve; as a rule, active = well fitted inhibition curve with a large enough effect; inconclusive = small, poorly fitted or top-dose-only effect; inactive = no such curve, though single readings can be large or run the other way. Some of the results follow.

This assay in a line: Primary qHTS assay for Inhibitors of ovarian cancer metastasis using an organotypic tumor microenvironment (TME) model.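 For activity change, negative = inhibition: plate controls were DMSO wells for no effect and tomatine positive control wells for full effect.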 Note: nearly all actives have a fitted effect of over 65% in size. The note with it: SKOV3ip1-GFP adhesion/invasion on 3D omental model, fluorescence; series mostly up to 45.8 µM; activity change, negative = inhibition: at the top concentration. The method in brief: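 A 3D layer of primary human omental fibroblasts, mesothelial cells, fibronectin and collagen I, grown 48 hr, received SKOV3ip1-GFP cells in serum-free medium plus compounds at 0.36-46 umol/L. After 2 hr RT and 16 hr 37 C, fixed adherent GFP cells were counted; normalized to DMSO and tomatine.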
Turning to `Cc1cc(Cl)ccc1NS(=O)(=O)c1ccc2c(c1)CCN2S(C)(=O)=O`, the “activity change, negative = inhibition” value is inactive: -8.67%.
With `Cc1cc(=O)n(Cc2cccc(Br)c2)c2c1c(C)nn2-c1ccccc1`, the “activity change, negative = inhibition” value was inactive: 0.495%.
In the case of `CCOc1cc2sc(N3CCC(C(=O)Nc4ccc(C(C)C)cc4)CC3)nc2cc1Br`, the “activity change, negative = inhibition” value is inactive: -5.17%.
As for `CCOc1ccc(NC(=O)CN(c2ccccc2OCC)S(=O)(=O)c2ccccc2)cc1`, the “activity change, negative = inhibition” value was inactive: 6.19%.
For `Cc1ccc(Nc2cc(=O)[nH]c(=O)[nH]2)cc1C`, the “activity change, negative = inhibition” value was inactive: -3.17%.
`COc1cccc(C(=O)N2CC(=O)Nc3ccc(C)cc3C2c2ccc(F)cc2)c1OC` (configuration not stated): the “activity change, negative = inhibition” value was inactive: -1.27%.
Take `Cc1c(Cl)cccc1-n1c(SCC(=O)NCc2ccccc2)nc2n[nH]c(C)c2c1=N`: the outcome was inactive.
With `COc1ccc(NC(=O)CC2C(=O)N(c3ccc(OC)cc3)C(=O)N2C2CCCCC2)cc1` (configuration not stated), the “activity change, negative = inhibition” value is inactive: -3.45%.
Consider `CCCOc1ccc(CNC(=O)C(C)n2nc(C)n3c(cc4occc43)c2=O)cc1` (configuration not stated), for which the “activity change, negative = inhibition” value is inactive: -0.439%.
Take `COc1ccc(Cl)cc1NC(=O)CSc1nnc(C)n2c1cc1sccc12`: the “activity change, negative = inhibition” value is inactive: 2.32%.
As for `COc1ccc(OC)c(CNC(=O)CCc2c(C)nc3c(c2C)c(=O)n(C)c(=O)n3C)c1`, the molecule was classed as inactive.
With `Cc1ccc(C(=O)N2c3ncnn3C3(CCCCC3)[C@@H]3CCCC[C@@H]32)cc1`, the “activity change, negative = inhibition” value was inactive: -9.66%.
In the case of `Cc1nc2cc(-c3ccccc3)nn2c(C)c1CCC(=O)NCCc1ccccc1`, the “activity change, negative = inhibition” value is inactive: -8%.
As for `Cn1c2c(c(=O)n(C)c1=O)C(c1cc(Br)ccc1F)CC(=O)N2` (configuration not stated), the molecule was called inactive.
Regarding `CCC1CCCCN1S(=O)(=O)c1ccc(NC(=O)c2nc(SC)ncc2Cl)cc1` (configuration not stated), the result was inactive.
In the case of `CCc1ccccc1NS(=O)(=O)c1ccc(-c2coc(C)n2)cc1`, the “activity change, negative = inhibition” value is inactive: -6.45%.
`Cc1oc2ncnc(N3CCCCC3)c2c1C(=O)Nc1cccc(Cl)c1C`: the “activity change, negative = inhibition” value is inactive: 0.33%.
Take `COC(=O)c1ccc(NC(=O)c2cc(S(=O)(=O)N3CCC(C)CC3)cn2C)cc1`: the call was inactive.
As for `Cc1cccc(CCNC(=O)c2ccc3c(c2)nc2n3CCOC2)c1`, the “activity change, negative = inhibition” value is inactive: 3.18%.
Turning to `COc1ccc(CC(=O)Nc2ccc(-c3nc4ccccc4s3)cc2Cl)cc1OC`, the “activity change, negative = inhibition” value is inactive: -7.07%.
Take `Cc1cccc(C)c1NC(=O)c1c(C)oc2c1C1=NCCN1C=N2`: the “activity change, negative = inhibition” value is inactive: 4.92%.
For the molecule `COc1ccc(Nc2cc(C(=O)NCCCN(C)c3ccccc3)c3ccccc3n2)c(OC)c1`, the molecule was called inactive.
Take `Cc1ccc2[nH]c(CSc3nnc(NC(=O)COc4ccccc4C)s3)cc(=O)c2c1`: the “activity change, negative = inhibition” value was inactive: 0.175%.
Take `Cc1nn(C)c2c1c(-c1ccccc1)cc(=O)n2C(C)C(=O)NCCc1ccc(Cl)cc1` (configuration not stated): the “activity change, negative = inhibition” value is inactive: 0.329%.
With `COc1ccc(C(=O)c2oc3ccccc3c2NC(=O)COc2cccc(C)c2)cc1`, the “activity change, negative = inhibition” value is inactive: 6.84%.
As to `CCN(CC)CCNC(=O)c1ccc2c(c1)NC(=O)C(CS(=O)(=O)Cc1ccc(F)cc1Cl)N2` (configuration not stated), the “activity change, negative = inhibition” value was inactive: -14.8%.
On to `CCn1cc(C(=O)NCCCN2CCC(C)CC2)c(=O)c2cc(S(=O)(=O)N(C)C3CCCCC3)ccc21`, for which the “activity change, negative = inhibition” value was inactive: 16.7%.
As to `CC(C)c1nc2ccc(C(=O)NCc3ccc(F)cc3)cc2o1`, the “activity change, negative = inhibition” value was inactive: -8.19%.
Take `COc1ccc(S(=O)(=O)NCC(c2ccco2)N2CCN(c3ccccc3F)CC2)cc1OC` (configuration not stated): the call was inactive.
With `COc1ccc(-c2ccc3c(N)c(C(=O)Nc4ccc(C)cc4C)sc3n2)cc1OC`, the “activity change, negative = inhibition” value was inactive: -26.9%.
On to `CCOc1ccc(-c2cc(NC(=O)c3c(F)cccc3F)c(C(=O)OC)s2)cc1`, for which the “activity change, negative = inhibition” value is inactive: 12.9%.
For `COc1ccc(CNC(=O)CCc2c(C)nn(-c3ccc(N4CCCC4)nn3)c2C)c(OC)c1`, the molecule was classed as inactive.
With `COc1ccccc1N1CCN(C(=O)c2nc(-c3ccc(C)cc3)n3c2CCCCC3)CC1`, the “activity change, negative = inhibition” value is inactive: 6.03%.
Turning to `COc1ccc(-n2c(SCC(=O)Nc3cc(C)cc(C)c3)nc3c(oc4ccccc43)c2=O)cc1`, the “activity change, negative = inhibition” value was inactive: 13.1%.
For `CCc1cccc(NC(=O)C2CCCN2S(=O)(=O)c2ccc3c(c2)n(C)c(=O)c(=O)n3C)c1` (configuration not stated), the “activity change, negative = inhibition” value was inactive: 6.25%.
For the molecule `CC1CCN(C(=O)c2ccccc2NC(=O)c2nsc3ccccc23)CC1`, the “activity change, negative = inhibition” value is inactive: -10.6%.
For the molecule `Cc1cc(NC(=O)CC(C)C)cc(-c2nc3ncccc3o2)c1O`, the “activity change, negative = inhibition” value is inactive: 6.28%.
Consider `Cc1cc(C)c(/C=C/c2onc(C)c2S(=O)(=O)N2CCC(C(=O)NCC(C)c3ccccc3)CC2)c(C)c1` (configuration not stated), for which the result was inactive.
For the molecule `COC(=O)c1c(NC(=O)C(C)Oc2ccc(Cl)cc2Cl)sc2c1CCCC2` (configuration not stated), the “activity change, negative = inhibition” value is inactive: -2.77%.
In the case of `COc1ccc(NC(=O)c2cc(S(=O)(=O)N3CCCCC3)c[nH]2)cc1Cl`, the “activity change, negative = inhibition” value is inactive: -7.66%.
The same measure, in the same setting: then `Cc1ccc(Cl)cc1NC(=O)c1cnn2c(C(F)F)cc(-c3ccccc3)nc12`, with inactive: 4.57%; and `Cc1ccc(NC(=O)c2c(C)oc3ccc(O)c(CN4CCCCC4)c23)cc1`, with inactive: -4.69%.
As for `COc1ccc(-c2nc3ccc(C)cn3c2Nc2ccc3c(c2)OCO3)cc1`, the “activity change, negative = inhibition” value was inactive: 1.31%.
Take `Cc1ccc(-n2nc(C(=O)Nc3ccc(C)c(F)c3)c(=O)n(C)c2=O)cc1`: the “activity change, negative = inhibition” value is inactive: -26.2%.
Regarding `O=C(NC1CCCC1)c1ccc2c(=O)n(Cc3ccccc3)c(SCc3ccccc3)nc2c1`, the “activity change, negative = inhibition” value is inactive: -7.46%.
Turning to `CCOC(=O)c1c(S(=O)(=O)N2CCC(C(=O)NCc3ccccc3OC)CC2)c(C)n(C)c1C`, the “activity change, negative = inhibition” value was inactive: 3.11%.
As to `Cc1cc(C)cc(OCC(=O)N(Cc2ccc(Cl)cc2)CC2CCCO2)c1` (configuration not stated), the “activity change, negative = inhibition” value was inactive: 6.92%.

Values taken from PubChem BioAssay AID1963576 (National Center for Advancing Translational Sciences (NCATS), 2024).
